Experimental data: article PMC4336329 (PLoS ONE, 2015)
The campaign covered roughly 310,000 compounds. About 2,200 (0.71%) showed an effect of 50% or more. The effect is printed as a negative number. Some of the results follow.

Molecular target: human ether-à-go-go-related gene (hERG) potassium channel (human, UniProt Q12809)
Test: primary screen, population patch clamp on CHO cells stably expressing hERG

Sequence of human ether-à-go-go-related gene (hERG) potassium channel (Q12809 whole entry, looked up): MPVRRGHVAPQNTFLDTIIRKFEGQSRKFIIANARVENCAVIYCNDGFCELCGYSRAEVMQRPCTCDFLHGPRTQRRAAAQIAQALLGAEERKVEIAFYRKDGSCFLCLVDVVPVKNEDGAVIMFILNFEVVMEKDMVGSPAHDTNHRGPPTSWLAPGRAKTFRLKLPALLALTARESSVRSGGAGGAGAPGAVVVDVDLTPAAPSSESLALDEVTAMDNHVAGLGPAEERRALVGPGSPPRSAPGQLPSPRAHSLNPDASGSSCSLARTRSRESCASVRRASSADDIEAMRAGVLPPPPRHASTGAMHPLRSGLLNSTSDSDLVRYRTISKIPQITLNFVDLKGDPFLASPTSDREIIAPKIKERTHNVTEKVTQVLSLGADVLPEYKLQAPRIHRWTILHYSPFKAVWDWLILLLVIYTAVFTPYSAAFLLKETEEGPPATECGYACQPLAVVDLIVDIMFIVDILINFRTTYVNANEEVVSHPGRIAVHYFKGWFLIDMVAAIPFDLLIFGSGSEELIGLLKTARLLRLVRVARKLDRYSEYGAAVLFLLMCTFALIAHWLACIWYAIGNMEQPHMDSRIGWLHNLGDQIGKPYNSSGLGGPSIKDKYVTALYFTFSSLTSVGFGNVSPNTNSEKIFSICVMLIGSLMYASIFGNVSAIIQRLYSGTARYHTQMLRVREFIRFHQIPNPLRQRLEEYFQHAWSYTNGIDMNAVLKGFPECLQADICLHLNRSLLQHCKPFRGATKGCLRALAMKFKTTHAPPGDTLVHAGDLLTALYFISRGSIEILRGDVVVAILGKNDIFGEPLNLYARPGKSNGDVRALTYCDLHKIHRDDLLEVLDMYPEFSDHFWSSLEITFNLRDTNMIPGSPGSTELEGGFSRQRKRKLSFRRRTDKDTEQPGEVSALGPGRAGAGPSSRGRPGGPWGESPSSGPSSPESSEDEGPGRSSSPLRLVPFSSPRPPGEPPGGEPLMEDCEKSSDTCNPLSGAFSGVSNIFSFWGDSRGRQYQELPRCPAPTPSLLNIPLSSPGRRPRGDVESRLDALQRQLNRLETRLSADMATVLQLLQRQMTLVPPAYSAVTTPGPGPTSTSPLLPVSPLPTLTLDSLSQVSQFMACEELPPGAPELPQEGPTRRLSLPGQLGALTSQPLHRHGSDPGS

| Compound | hERG current change (%, negative = inhibition) at 1uM [%] |
| --- | --- |
| COc1ccc(-n2nc(C(=O)NCCCN3CCCC3=O)c3c4ccccc4n(C)c3c2=O)cc1Cl | 22.5 |
| Cc1ccccc1CNC(=O)CCC(=O)N1Cc2ccccc2Oc2ncccc21 | 5.73 |
| Cc1cc(C)c(C(=O)COC(=O)c2ccc(NC(=O)CC#N)cc2)cc1C | 11.7 |
| Cc1ccc(S(=O)(=O)Nc2ccc(S(=O)(=O)Nc3nccs3)cc2)c([N+](=O)[O-])c1 | 9.28 |
| CC(C)c1ccc(NC(=O)[C@H](NC(=O)[C@@H]2Cc3ccccc3CN2)c2ccccc2)cc1 | -4.68 |
| Cc1ccc(/C=C/C(=O)OCC(=O)Nc2cccc(S(=O)(=O)N(C)C)c2)o1 | 2.87 |
| Cc1cc(C)cc(NC(=O)CSc2ccc(-c3ccco3)nn2)c1 | -7.48 |
| O=C(O)c1ccc(-c2ccc(/C=N/Nc3ccc([N+](=O)[O-])cc3)o2)cc1 | 9.43 |
| Cc1cc(C)c[n+](-c2nc3ccccc3nc2C(=C=[N-])C#N)c1 | 15.2 |
| Cc1ccc2c(CC(=O)Nc3ccc(F)c(S(=O)(=O)N4CCOCC4)c3)coc2c1 | 12.6 |
| CN(Cc1ccc(C(C)(C)C)cc1)C(=O)C1CSC2(C)CCC(=O)N12 (stereo not drawn) | 14.8 |
| COC(=O)/C(C#N)=C/c1ccc(-c2ccc(S(N)(=O)=O)cc2)o1 | 6.1 |
| CN(C(=O)COC(=O)c1ccccc1Nc1ccccc1)c1c(N)n(Cc2ccccc2)c(=O)[nH]c1=O | 23.6 |
| Cc1cc(C(F)F)n2ncc(C(=O)NCc3ccccc3F)c2n1 | 7.96 |
| C/C=C/c1ccc(OCC(=O)OCC(=O)Nc2c(C)nn(-c3ccccc3)c2C)c(OC)c1 | 15.4 |
| CC(C)(C)c1ccc(NC(=S)NCc2cccs2)cc1 | 3.56 |
| O=C(CCn1c(=S)[nH]c2ccccc2c1=O)NCCc1ccccc1 | 15.2 |
| O=C(CCCN1C(=O)[C@H]2CC=CC[C@H]2C1=O)NCc1nc(-c2ccc(Cl)cc2)no1 | 11 |
| COc1cc2c(cc1Cl)C(=O)C(F)(c1ccccc1)C(=O)N2 (stereo not drawn) | 11.8 |
| COc1ccc(CCN(C)Cc2c(F)cccc2F)cc1OC | -1.59 |
| CCOC(=O)C/C(C)=N/NC(=O)c1cccs1 | 3.86 |

| Compound | hERG current change (%, negative = inhibition) at 1uM [%] |
| --- | --- |
| CCN1CCN(C(=O)CCc2nc3ccccc3c(=O)[nH]2)CC1 | 17.9 |
| COC(=O)c1cc(Br)ccc1NC(=O)CCNC(=O)c1ccco1 | 10.9 |
| Cc1cccc(C(=O)Nc2ccc(C(=O)N3CCCCC3C)cc2)c1 (stereo not drawn) | 1.5 |
| COC(=O)[C@@]12CCCCN1[C@H](c1ccc(-c3ccccc3)cc1)[C@H]1C(=O)N(C)C(=O)[C@H]12.O=C(O)C(F)(F)F | 11.7 |
| O=C(N/N=C\c1cccnc1)c1ccccc1O | -32.4 |
| CSc1ccccc1C(=O)NCCOc1ccccc1C | 3.54 |
| CN(CC(=O)Nc1ccc(OC(F)(F)F)cc1)C1CCCCC1.Cl | 0.281 |
| Cc1ccc(C(CNS(=O)(=O)c2ccc(F)cc2C)N2CCN(C)CC2)cc1 (stereo not drawn) | -20.1 |
| CC(C)CN1C(=O)C(=O)N(CC(=O)c2ccc3c(c2)CCCC3)C1=O | 13.2 |
| CCCOc1ccc(N2CC(C(=O)NCCc3ccc(OC)c(OC)c3)CC2=O)cc1 (stereo not drawn) | 5.71 |
| CC1CCN(CCCCOc2ccccc2[N+](=O)[O-])CC1.O=C(O)C(=O)O | -9.2 |
| COc1ccc(S(=O)(=O)Nc2ccc3c(c2)OCO3)cc1 | 16.6 |
| NC(=O)[C@@H]1CC2(CC(c3cccc(NC(=O)COc4ccc(Cl)cc4)c3)=NO2)CN1C(=O)COc1ccc(Cl)cc1 (stereo partly drawn) | 12.5 |
| Brc1csc2ncccc12 | 14.8 |
| Fc1ccccc1OCCCCN1CCCCC1 | 15.2 |
| Cc1onc(-c2c(Cl)cccc2Cl)c1C(=O)O/N=C(\C#N)c1c(Cl)cccc1Cl | 9.12 |
| CC1=CN2C(=NC(=O)CC2(C)C(=O)N(CC(=O)NC2CCCC2)Cc2ccccc2)C=C1 (stereo not drawn) | 6.18 |
| Cc1ccc(-n2nc(-c3ccc(OC(F)(F)F)cc3)cc2N)cc1C | 5.24 |
| CCn1c(SCC(=O)Nc2ccc3c(c2)OCCO3)nnc1-c1ccncc1 | 8.36 |
| Cc1oc(-c2cc(F)ccc2F)nc1CN1CCN(c2cnccn2)CC1 | 1.5 |
| N#CC1=C(N)SC(N)=C(C#N)C1C1C=CCCC1 (stereo not drawn) | -13.2 |
